Results as given in a collection of fitness landscapes (doi:10.1016/j.celrep.2020.107928).
The full ranking holds about 81,000 sequences; the median of “one-hybrid fitness for binding parS DNA” is about -0.17, and the highest 2% start at about 0.51. This is one part of the list.

B1: Caulobacter ParB omega fusion; a variant is named by its letters at X, in order, B8GW30 (parent)
chain: MESVVVGEPGMSEGRRGLGRGLSALLGEVDAAPAQAPGEQLGGSREAPIEILQRNPDQPRRTFREEDLEDLSNSIREKGVLQPILVRPSPDTAGEYQIVAGERAWRAAQRAGLKTVPIMVRELDDLAVLEIGIIENVQRADLNVLEEALSYKVLMEKFERTQENIAQTIGKSXSHVANXMRLLXLPDEVQSYLVSGELTAXHARAIAAAADPVALAKQIIEGGLSVRETEALARKAPNLSAGKSKGGRPPRVKDTDTQALESDLSSVLGLDVSIDHRGSTGTLTITYATLEQLDDLCNRLTRGI

Variants of: B1
Assay: one-hybrid fitness for binding parS DNA (scaled: cognate 1, non-cognate 0); higher = stronger binding
Details: with parS DNA site
Outline: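 The reporter was HIS3, with the binding site 19 bp from the promoter, in E. coli USO used for bacterial one-hybrid selection of Caulobacter ParB libraries with four specificity codons randomised. Growth was on M9 lacking histidine, with 0.1 mM IPTG and 5 mM 3-AT, for 48 hours at 37°C. Illumina sequencing covered plasmids before and after selection; three replicate libraries were pooled and variants with under 10 reads dropped. A fitness score is the log change in variant-to-wild-type read ratio, rescaled to the cognate and non-cognate references.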

| Variant | one-hybrid fitness for binding parS DNA |
| --- | --- |
| SRHY | ≤ 0.2 |
| RRVE | ≤ 0.2 |
| AYLR | ≤ 0.2 |
| QIRD | ≤ 0.2 |
| WVGR | ≤ 0.2 |
| PPDF | ≤ 0.2 |
| YKAG | ≤ 0.2 |
| RCYA | 0.619 |
| EALV | ≤ 0.2 |
| TKCL | ≤ 0.2 |
| NTTK | ≤ 0.2 |
| MCSL | ≤ 0.2 |
| KGNR | ≤ 0.2 |
| RNPI | ≤ 0.2 |
| RAVA | 0.542 |
| RNMH | ≤ 0.2 |
| WLHF | ≤ 0.2 |
| KLSM | ≤ 0.2 |
| FQVT | ≤ 0.2 |
| GKMG | ≤ 0.2 |
| QYAI | ≤ 0.2 |

| Variant | one-hybrid fitness for binding parS DNA |
| --- | --- |
| RCMR | ≤ 0.2 |
| VDYT | ≤ 0.2 |
| HEWR | ≤ 0.2 |
| HDCR | ≤ 0.2 |
| HSQF | ≤ 0.2 |
| GAAG | ≤ 0.2 |
| LWIV | ≤ 0.2 |
| MHRT | ≤ 0.2 |
| SRMQ | ≤ 0.2 |
| GEVY | 0.21 |
| CVPT | ≤ 0.2 |
| MNSE | ≤ 0.2 |
| WRER | ≤ 0.2 |
| LIIV | ≤ 0.2 |
| GVHP | ≤ 0.2 |
| RPHM | ≤ 0.2 |
| PDCR | ≤ 0.2 |
| GFIR | ≤ 0.2 |
| ISPH | ≤ 0.2 |
| YAFS | ≤ 0.2 |
| HVKS | ≤ 0.2 |

| Variant | one-hybrid fitness for binding parS DNA |
| --- | --- |
| LWMS | ≤ 0.2 |
| VPSC | ≤ 0.2 |
| VPTL | ≤ 0.2 |
| PSYK | ≤ 0.2 |
| KAVL | ≤ 0.2 |
| CLFD | ≤ 0.2 |
| RGKE | ≤ 0.2 |
| IHPY | ≤ 0.2 |
| RESE | ≤ 0.2 |
| WYTG | ≤ 0.2 |
| KADG | ≤ 0.2 |
| VQQM | ≤ 0.2 |
| MEVE | ≤ 0.2 |
| EARY | ≤ 0.2 |
| PRHI | ≤ 0.2 |
| SYCC | ≤ 0.2 |
| PNTH | ≤ 0.2 |
| MMAT | ≤ 0.2 |
| VLPC | ≤ 0.2 |
| MRIM | ≤ 0.2 |
| AMAK | ≤ 0.2 |

| Variant | one-hybrid fitness for binding parS DNA |
| --- | --- |
| RHRS | 0.823 |
| HPHV | ≤ 0.2 |
| KSLY | ≤ 0.2 |
| PIYL | ≤ 0.2 |
| RMEY | 0.409 |
| REAR | ≤ 0.2 |
| ACYF | ≤ 0.2 |
| VVQA | ≤ 0.2 |
| QKDR | ≤ 0.2 |
| KQRK | ≤ 0.2 |
| MRTG | ≤ 0.2 |
| QDAW | ≤ 0.2 |
| CSTW | ≤ 0.2 |
| WDTT | ≤ 0.2 |
| MAMS | ≤ 0.2 |
| YNTI | ≤ 0.2 |
| FMPF | ≤ 0.2 |
| RNDM | ≤ 0.2 |
| HASV | ≤ 0.2 |
| RIMV | ≤ 0.2 |
| PMRM | ≤ 0.2 |
